The list shows a part of the results.
The sequences below were run on PfAP2-HC AP2 domain (GST-tagged) (assay: gcPBM binding intensity (ln(normalized median fluorescence intensity)); higher = stronger DNA binding).
In short: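 Alexa488 anti-GST antibody, scanned at 488 nm, detected GST-tagged P. falciparum DNA-binding domains that had been expressed in E. coli and incubated for 1 h on an Agilent 4 × 180k array. The array carried primer-extended double-stranded 36-bp intergenic genomic probes and negative controls. Binding intensity is the highest Masliner-normalised natural-log median intensity across replicate spots of either orientation of each probe.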

Sequence	gcPBM binding intensity (ln)
GACAGATTATAGCATAGTACTCATACATACATACAT [XGTACX_site1252]	9.77
TACATACATACATACACACACACATCTATATTTATA [CACACA_site6171]	10.6
TTTCAAAAATTATTTTGTACATATAATTAATATACG [XGTACX_site512]	9.48
ATTAAATACATTAACACACACACAAATAAATACATA [CACACA_site5583]	10.4
TTTTATTATTTGTCTTGTACTCATTGTAAGAGTATG [XGTACX_site1538]	9.53
AAAAAAAAAAAAATGGTGCAACTTTGTTAAAGGAAA [GTGCAC_site9950]	9.72
ATTTAAAAGTTGGTAGTGCATTAAAAATAACAAAAA [GTGCAC_site9835]	9.6
AATTTCTTCCATTGTAGTACTCAATTTTTTTTTGTT [XGTACX_site5847]	9.87
GTGTAATATTATATATATATATATAATATATATACA [CACACA_negctrl_site263]	9.56
CACATATACAAAAAGAAATGTTTAGTTGAAAATTAA [CACACA_negctrl_site1407]	9.43
GTAATAAATTAAATATGTACATATTAAAATTAAGGA [XGTACX_site2290]	9.86
ATTGATACATCCAATACACACTACAGATAATGATGT [CACACA_site5098]	9.78
GAATTAATTTTAAAACGTACATGGGTGTATTTACAC [XGTACX_site5939]	9.53
CATAATACAAATGTGATACCTGAAAATGACTTATTA [CACACA_negctrl_site994]	9.72
TTCTTTTTTGTAATAACACACACACTAACAGAAAAA [CACACA_site8646]	10.2
TGCTACATAATATGTACACACATATACATATTTATA [CACACA_site6545]	9.93
GTATGATTAAATAAAGGTACACTTATATTTATTTAT [XGTACX_site6966]	9.57
TATCACATTTATGAGAGTACATAATTAATTCATGAT [XGTACX_site7850]	9.53
TTTTATTTTATATAACAACAAAATGGAAATATATAT [GTGCAC_negctrl_site71]	9.41
GTCAATATTTAGATATGTACTAAGGAGTGCTATATA [XGTACX_site222]	9.61
TAAATGAAAATAAATTAACACACAATTTTAATATTG [CACACA_site8360]	9.66
ATATTATGAAGGGATATTTTCAAAAATATTAGGAGA [CACACA_negctrl_site942]	9.62

Sequence	gcPBM binding intensity (ln)
AATTATACATATATTTAACACACATTTTATAAAGTG [CACACA_site8362]	9.66
ATATATATATATAATTGTACATGTGTGTATAATTTG [XGTACX_site2417]	9.8
TTGGAATAATATAAATAAATAAATATATATATATAT [CACACA_negctrl_site900]	9.5
ATACAACAGATATATACACACATATAACAATAATAA [CACACA_site7560]	10
AAAAAAAAAAAATGTGCACACGCGTACACCCAAAAA [CACACA_site8614]	9.98
TTTCTTTTTGTTCGTGTACACACATGAAATTTATAA [CACACA_site8466]	9.82
CAATTTTTATGTGTGTGTACTCATTTGTTTTATAAA [XGTACX_site406]	10
TCATAGTATGGACACACACACACACCCATATATATA [CACACA_site5033]	11.2
TATTATATTAATGATGGTACAGTGTATATATATAAT [XGTACX_site1286]	9.61
ACATATAATATAAAGTGTACAAGAAAATAAAAATAA [XGTACX_site1273]	9.95
TTTCCATATTTTTAAAGTACATATTTCCGTTTCCAC [XGTACX_site7832]	9.58
TTATTTGATTACTTGCGTACTTATTTCATATTTTTT [XGTACX_site6648]	10
GGGATATTTTAAAGGGTGCATATTATTAAAATAATG	9.48
ATGAGAAAACATAAAAGTACAAAAAGAAAAAAAAAA [XGTACX_site6020]	9.65
TTTATTTTATAATTCACACATATATACCTATTTTAT [CACACA_site5709]	9.79
GTGTGGTGCTCGAGGAGTACAAACAATATGTAATTT [XGTACX_site4160]	9.62
TAAACAGACATATAAACACACATATAAACAGACATA [CACACA_site7214]	10.2
TTTTCTTCCTATTATTGTACATATAGTATTCTTTCA [XGTACX_site4428]	9.79
AATATAAGTAATTATACACACTTAATATTTATATAC [CACACA_site7334]	9.72
TAATAATAAACAACCACACACAAAAAAACAAAAAAA [CACACA_site3269]	10.3
GTAGCACATATATATTGTACATAATATATACATTAT [XGTACX_site6354]	9.79
ATTTAATTATGTAAGTGTACTTTGGAATATAATATT [XGTACX_site3186]	9.46

Sequence	gcPBM binding intensity (ln)
TATATAACATAATATACACACATTATATGCGTAATT [CACACA_site6098]	9.8
ATTAAAGAAATATATACACACATTATGGGGGAATAA [CACACA_site178]	9.93
GATATATAAATAAATACACACATAAAATAGAAATAT [CACACA_site6881]	10
GTTAGGATAGATTAGACATGCACATAAATGCACTTC [TGCATGCA_site561]	9.6
TTTTTATAGAATTTAACACACATTTCATATAAAAAA [CACACA_site7453]	9.25
AATTTAAGCAGAACATATATATATATATATATAAAG [CACACA_negctrl_site769]	9.51
TATATGCTATAATATACACACATACCTATATTTATA [CACACA_site6383]	9.94
TTTAAATGCTTTTTGTGGTGACTTATCCTTTCATAA [XGTACX_negctrl_site109]	9.56
AATTATTTCTTTTACACATGCAATATTTAATTAAAA [TGCATGCA_site598]	9.44
ACATATTAAAATATATGTACATAAAATATGAAAAAA [XGTACX_site5869]	9.89
ATATTTATTCCTTTTGGTACACAAAAAAAAAAAAAA [XGTACX_site8126]	9.29
ATAGAAATATTATATTGTACGAACAGTTATTAACAA [XGTACX_site2137]	9.51
ATTATTTGTTTAAATTCACACACGTATATATATTTA [CACACA_site3050]	10.1
ACATGTAAATGGAAAAGTACTAATAACTTGTATTGG [XGTACX_site5181]	9.72
TTATTTTAATATAAAATACACACTACTATTATAAAT [CACACA_site1470]	9.58
TAATTATTAAAACATTGTACATTATTATAAACAATT [XGTACX_site4489]	9.5
ATATATAAATATATTACACACTTTTTCTTTTTTTTT [CACACA_site7332]	9.68
TATTACATACAATATTGTACATATCATATTTTGAAT [XGTACX_site2191]	9.88
ACGGAAAAAGAAAAGGTGCATATGGACACAATATAT	10.2
CTTATATTAATTATTACACACATATTTATAAATGCA [CACACA_site6501]	9.73
TTTTCCATAAGAATTACACACAGAAAGGATAAGTAT [CACACA_site105]	9.83
AAACAGCATGGTATACCTATAAAATATATATACTAA [GTGCAC_negctrl_site39]	9.66

Sequence	gcPBM binding intensity (ln)
ATATTTACCTTTGTATGTACATATATAAAATATATC [XGTACX_site6367]	9.75
TTTTGTAAAAAGAAAAATTAGAATATATCGTATATA [XGTACX_negctrl_site617]	9.1
GTATTTTTACAAATTTGTACATATATATGAATATAC [XGTACX_site6717]	9.91
GTATATAAATATATATATATATATATATCTATATTT [CACACA_negctrl_site871]	9.72
AAAGAAAAATTAACATGTACAAAAATTACTTGTTCA [XGTACX_site6725]	9.58
AAAAAAAATTCACACTGTACAAAAGCATAAATAAAC [XGTACX_site5408]	9.84
TCTGAAACAAGAAAAAGTACACAAATTACAAAACTA [XGTACX_site7641]	9.58
TAATAAATACAAAAATGTACACACATATATATATTT [XGTACX_site7430]	9.85
TTATTTATTTATTCATGTACGTGTATTTTTTAAAAA [XGTACX_site7915]	9.63
TATATATATATTATCACACACTCACGTTTGACAAAA [CACACA_site689]	9.88
ATTGGGTACAAATACACACACATATATATATTAAGA [CACACA_site5330]	10.1
AGTGTCATATTAACACGTACATAATTATTGTAGAGA [XGTACX_site568]	9.71
TTTGTATATTATTTTAGTACATAACATTGAAGATAT [XGTACX_site6680]	9.45
ATATAAGGATTAATATGTACATATATATATATATTT [XGTACX_site1390]	9.67
TATTTTGAAACTAAAAGACATAGAGAAAACAAAAAA [CACACA_negctrl_site1306]	9.58
AAATAATGTTTGAATTGTACACATATTTGTGTTTCT [XGTACX_site4603]	9.87
GTGGAACGTATATTTTCACACACTCTCAAAAGTACA [CACACA_site8722]	9.81
ATGTTGCACAGTGGAAGAATTAAAAATAAATAAATA [XGTACX_negctrl_site581]	9.44
GTGGAACATATGAACTCACACACATTTTCACTTAAA [CACACA_site3683]	9.89
AATTTTTGTATTTTTAGTACTTAATTTCAAAATAAC [XGTACX_site4234]	9.11
AATATTATAAATGTCACACATATATTCAAATATATA [CACACA_site4736]	9.54
ATGAACATATCAATTCTCAAAATAGGATGAGAGCAT [CACACA_negctrl_site230]	9.6

Source: the supplement of paper PMC11417369
